± gives the standard deviation of the averaged measurements. Some of the results follow.
The sequences below were run on PfAP2-LT AP2 domain (GST-tagged) (assay: gcPBM binding intensity (ln(normalized median fluorescence intensity)); higher = stronger DNA binding).
In short: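 Probes on an Agilent 4 × 180k array were primer-extended, double-stranded and 36 bp long, taken from intergenic genomic regions, with negative controls added. GST-tagged P. falciparum DNA-binding domains from E. coli, about 25 μg on average, were applied to the array for 1 h in 1× PBS containing 1% milk, 0.2 mg/ml BSA, 0.5% salmon testes DNA and 0.03% Triton X-100. Binding intensity, obtained after Alexa488 anti-GST antibody detection and a 488 nm scan, is the highest Masliner-normalised natural-log median intensity across replicate spots of either probe orientation.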

| Sequence | gcPBM binding intensity (ln) |
| --- | --- |
| ATGGATTATACGTGCACACATATATACCAATAAATA [CACACA_site4524] | 9.25 ± 0.42 |
| CATTAAAATATGAGATGTACACAATATCTATTATAT [XGTACX_site4979] | 8.79 ± 0.4 |
| ATTTAAATATCTTCTTTTTTTTTTTTTTTTGAAATT [CACACA_negctrl_site1074] | 8.15 ± 0.64 |
| GTGTATAATATAGGATGTACAATAAAACACCGATTG [XGTACX_site7429] | 9.07 ± 0.42 |
| GAGCGTAATCTATTTGCACACTTATTTGTTCTTAAA [CACACA_site673] | 9.09 ± 0.38 |
| TTGTTTATCAACAGCACACACAACAACAACAACAAC [CACACA_site458] | 9.11 ± 0.32 |
| ATAAAAACATAAACAAATCAAAAAAAAAAAAAAAAA [CACACA_negctrl_site13] | 8.59 ± 0.46 |
| TGTGCACATAATTAGTGTACATTTTTTATTTAGACA [XGTACX_site317] | 8.59 ± 0.44 |
| AATGGCAAAATAGGCACACACACATATACATATATA [CACACA_site1058] | 9.72 ± 0.47 |
| AATTATATTTGAAATACACACATAAAAATCATATAG [CACACA_site3468] | 8.98 ± 0.3 |
| AGATTTAAATATCATACACACTTTATATATAATACA [CACACA_site4688] | 8.68 ± 0.45 |
| ATTAGAGAATCGTAACCCAAATGAACATACTTAAAT [GTGCAC_negctrl_site363] | 8.87 ± 0.39 |
| CTTATTGATTTAAAAAGTACATATATGTATATACAC [XGTACX_site4072] | 8.62 ± 0.48 |
| AAAAAAAAAAAAAATACACACATATAAATATAAATA [CACACA_site6189] | 9.04 ± 0.47 |
| AATATATAAACCGAACGTACATATTTTTTATACACC [XGTACX_site2121] | 8.89 ± 0.38 |
| TGTTATATGTTCAAATGTACAAATCATATACATGTT [XGTACX_site3192] | 8.76 ± 0.38 |
| GTGTACAGACACAAAATATATACATATATATATATA [CACACA_negctrl_site1796] | 9.5 ± 0.11 |
| TATTTTCATAATAAAAAAAAATAATTTAAAAAATAT [CACACA_negctrl_site748] | 8.12 ± 0.49 |
| ATTATTTTCTCATAGAGTACAAATGTTGTTGTTGTC [XGTACX_site1062] | 8.95 ± 0.45 |
| TTATTTTATTTTTATACACACATGTTTTAATGTTCA [CACACA_site249] | 9.06 ± 0.38 |
| AAAAGATATTTGAATATACACACGATTTAAATTTAA [CACACA_site3865] | 8.78 ± 0.39 |
| TATATATACACACACACATGCATGCCGATATATATA [TGCATGCA_site29] | 9.76 ± 0.11 |
| AATAAAAATAGGAAATGTACACATATATATATATAT [XGTACX_site1853] | 9.72 ± 0.18 |
| AAAGATTTAATCTATACATGCAAATATATAGAAAAG [TGCATGCA_site373] | 8.67 ± 0.35 |

Reference: the supplement of paper PMC11417369
